PubChem BioAssay AID1508624 (National Center for Advancing Translational Sciences (NCATS), 2021)
About 120 (0.25%) of roughly 48,000 compounds were called active. Not shown: some 4% with an inconclusive outcome. Calls come from the whole dose curve; as a rule, active = well fitted activation curve with a large enough effect; inconclusive = small, poorly fitted or top-dose-only effect, or another doubt; inactive = no such curve, though single readings can be large or run the other way. This is one part of the list.

Assay: Primary qHTS for Identification of Small Molecule Activators of Huntingtin-Antisense Promoter Activity; note: nearly all actives have a fitted effect of over 55% in size
Settings: HEK293 HTT-AS promoter firefly luciferase reporter, 24 h; series mostly up to 57.5 µM; activity change, positive = activation: at the top concentration
How it was run: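 Firefly luciferase signal from promoter-reporter HEK293 cells was scaled between vehicle (0%) and zero RLU (-100%). Compounds were tested at final concentrations of up to 57.5 uM over 24 h at 37 degrees C. PTC124 at 50 uM final served as control inhibitor.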

| Structure (SMILES) | activity change, positive = activation |
| --- | --- |
| CCC(=O)N1c2ccccc2CC1C(=O)NCCc1cc(OC)c(OC)c(OC)c1 (stereo not drawn) | inactive: -6.44% |
| CCCN1CCN(c2nnc(-n3cccc3C(=O)Nc3cc(Cl)ccc3C)s2)CC1 | inactive: -19.1% |
| CCSc1ncc(Cl)c(C(=O)Nc2nc3ccc(S(C)(=O)=O)cc3s2)n1 | inactive: -17.5% |
| Cc1ccc(NC(=O)C2CCCN(S(=O)(=O)c3cccc4nsnc34)C2)cc1C (stereo not drawn) | inactive: -17.9% |
| COc1ccc(-n2c(=O)c3sc4ccccc4c3n(C)c2=O)cc1 | inactive: -3.3% |
| Cc1ccc(C)c(Cn2c(=O)n(CCCCC(=O)NCc3ccc4c(c3)OCO4)c(=O)c3ccccc32)c1 | inactive: -20.4% |
| CCCCn1cc(S(=O)(=O)c2cc(C)ccc2C)c(=O)c2cc(F)c(N3CCC(C)CC3)cc21 | inactive: -1.8% |
| CCOC(=O)c1c(C)[nH]c(C)c1S(=O)(=O)N1CCC(C(=O)Nc2ccc(OCC)cc2)CC1 | inactive: -2.17% |
| CC(C)OCCCNc1ncnc2sc3c(c12)CCCC3 | inactive: -39% |
| CCc1cccc(NC(=O)CN(c2ccc(C)c(C)c2)S(=O)(=O)c2ccsc2C(=O)OC)c1 | inactive: -19.5% |
| Cc1ccc(C)c(N2CCN(C(=O)CN3C(=O)COc4ccc(S(=O)(=O)N5CCCC5)cc43)CC2)c1 | inactive: -9.28% |
| COc1ccc(C(=O)NCC(c2ccco2)S(=O)(=O)c2ccc(F)cc2)cc1 (stereo not drawn) | inactive: -11.1% |
| CN(C)CC[C@H](CSc1ccccc1)Nc1ccc(S(=O)(=O)NC(=O)c2ccc(N3CCN(Cc4ccccc4-c4ccc(Cl)cc4)CC3)cc2)cc1[N+](=O)[O-] | inactive: -12.5% |
| CCCCN(CCCC)CCCNC(=O)Cn1cc2c(n1)-c1c(oc(C(=O)N3CCCC3)c1C)CC2 | inactive: -3.27% |
| CCOC(=O)c1ccc(N2C(=O)c3[nH]nc(-c4ccc(C)cc4)c3C2c2cccs2)cc1 (stereo not drawn) | inactive: -43.5% |
| CSc1ncc(C(=O)Nc2ccccc2C(F)(F)F)c(-c2ccccc2)n1 | inactive: -6.13% |
| CCCc1nc2nc(C)c(NS(=O)(=O)c3ccc(CC(C)C)cc3)c(=O)n2[nH]1 | inactive: -10.6% |
| O=S(=O)(c1ccc(Cl)cc1)c1nc(-c2cccs2)oc1SCc1ccc(F)cc1 | inactive: -11.5% |
| COc1cccc(CNC(=O)Cc2c(C)c3c(cc(C)c4c(C)c(C)oc43)oc2=O)c1 | inactive: -1.17% |
| Cn1nnc2c(NCc3ccc(Cl)cc3)ncnc21 | inactive: -16.2% |

| Structure (SMILES) | activity change, positive = activation |
| --- | --- |
| COc1ccc(OC)c(NC(=O)C2Cc3ccccc3CN2S(=O)(=O)c2ccc(F)cc2)c1 (stereo not drawn) | inactive: -31% |
| CC1=C(C(=O)Nc2ccc(Cl)cc2)C(c2ccccc2F)n2nc(SCc3cccc(Cl)c3)nc2N1 (stereo not drawn) | inactive: -4.17% |
| O=C(Nc1nc2ccccc2n1CCN1CCOCC1)c1cccc([N+](=O)[O-])c1 | inactive: 10.1% |
| CCc1ccc(CNC(=O)c2cc3n(n2)CCCN(Cc2ccccc2)C3=O)cc1 | inactive: -23.2% |
| Cc1ccc(Cn2c(=O)n(CCc3ccc(Cl)cc3)c(=O)c3ccccc32)cc1 | inactive: 2.92% |
| Cc1ccc(-n2ncc3c(NC(C)c4ccccc4)ncnc32)cc1 (stereo not drawn) | inactive: 11% |
| COc1ccc(NC(=O)Cn2c(=O)n(Cc3ccccc3OC)c(=O)c3cccnc32)cc1Cl | inactive: -15.4% |
| CCOC(=O)Cc1ccc(NC(=O)N2CCSc3ccccc32)cc1 | inactive: -4.92% |
| Cc1ccc(-c2nc(CS(=O)CC(=O)NCc3ccccc3Cl)c(C)o2)cc1 (stereo not drawn) | inactive: -11% |
| COCCNC(=O)C1CCN(C(=O)c2cc3sccc3n2Cc2ccc(Cl)cc2)CC1 | inactive: -50.5% |
| CCCN(CCC)CCCNC(=O)C1CCCN(Cc2nc(-c3ccc(Cl)cc3)oc2C)C1 (stereo not drawn) | inactive: -26.5% |
| COc1ccccc1NC(=O)CSC1=Nc2ccccc2C2=NC(CCC(=O)NCc3ccco3)C(=O)N12 (stereo not drawn) | inactive: -10.5% |
| O=c1ccc2cc(S(=O)(=O)Nc3ccc(F)c(Cl)c3)ccc2[nH]1 | inactive: -18.2% |
| CCOc1ccc2nc(SCC(=O)Nc3ccc(F)cc3)nc(-c3ccccc3)c2c1 | inactive: -1.76% |
| O=C(CCSCc1cccc(Cl)c1)N1CCN(c2ccc(Cl)cc2)CC1 | inactive: -10.3% |
| Cc1ccccc1C(=O)N1CC(=O)Nc2ccc(Cl)cc2C1c1ccccc1 (stereo not drawn) | inactive: -11.9% |
| O=C(c1cccc(Cl)c1)N1c2nc(-c3ccco3)nn2C2(CCCCC2)[C@@H]2CCCC[C@@H]21 | inactive: -13% |
| COc1ccc(CCNC(=O)CCCCn2c(=O)c3ccccc3n(CC(=O)Nc3c(C)cccc3C)c2=O)cc1OC | inactive: -9.93% |
| C#CCn1c(=NC(=O)c2ccc3c(c2)OCCO3)sc2cc(OC)c(OC)cc21 | inactive: 11.3% |
| COc1cc(OC)cc(N2C(=O)N(Cc3ccc(C(C)(C)C)cc3)c3ccccc3S2(=O)=O)c1 | inactive: -15.1% |

| Structure (SMILES) | activity change, positive = activation |
| --- | --- |
| CCOC(=O)c1c(C)[nH]c(C)c1S(=O)(=O)NCC(=O)Nc1cccc(C#N)c1 | inactive: -13.8% |
| COc1ccc(S(=O)(=O)N2CCC(C(=O)Nc3ccccc3)CC2)cc1OC | inactive: -5.77% |
| COC(=O)c1scc(-c2ccc(C)cc2)c1S(=O)(=O)N1CCN(c2ccccc2)CC1 | inactive: -13.8% |
| Cc1nc2ccc(S(=O)(=O)CCC(=O)Nc3ccc(Cl)cc3)cc2s1 | inactive: -20.5% |
| Cc1sc2ncn(CC(=O)Nc3ccc(C(C)C)cc3)c(=O)c2c1S(=O)(=O)N1CCN(c2ncccn2)CC1 | inactive: -24.8% |
| CC1(C)N=C(SCc2ccccc2Cl)c2ccccc2N1 | inactive: -1.11% [at 11.5 µM, percent change from vehicle, -100% = no light] |
| Cc1ccc(S(=O)(=O)c2nnn3c2nc(NC(C)C)c2cc(Cl)ccc23)cc1C | inactive: 0% |
| Cc1cccc(-c2noc(-c3cccnc3NCc3ccc(Cl)cc3)n2)c1 | inactive: 1.12% |
| CCCCNC(=O)CSc1nc2n[nH]c(C)c2c(=N)n1-c1cccc(Cl)c1C | inactive: -38.9% |
| COc1ccc2c(c1)sc1ncc(C(=O)NCc3ccccc3F)c(=O)n12 | inactive: -2.12% |
| COc1ccc(S(=O)(=O)Nc2ccc3oc4c(c3c2)CCCC4)cc1 | inactive: -37.4% |
| CCOc1ccccc1CNC(=O)c1ccc2c(c1)N(Cc1ccc(C)cc1)CCS2 | inactive: -19.7% |
| CC(=O)c1cccc(NC(=O)CSc2nc(=O)n(Cc3ccco3)c3c2CCC3)c1 | inactive: -20.8% |
| Cc1oc(-c2cccc(Cl)c2)nc1CS(=O)(=O)CC(=O)NC(C)CCc1ccccc1 (stereo not drawn) | inactive: -19.9% |
| O=C(CSc1ccc(-c2cccs2)nn1)Nc1ccccc1C(F)(F)F | inactive: -18.2% |
| Cc1ccccc1CNC(=O)C(C)N(c1ccccc1)S(C)(=O)=O (stereo not drawn) | inactive: -10.1% |
| Cc1ccc(NC(=O)C2CCCN(C(=O)c3cnn(-c4ccc(F)cc4)c3-n3cccc3)C2)c(Cl)c1 (stereo not drawn) | inactive: -9.01% |
| O=C(NCCc1ccccc1Cl)C1CCN(c2nc3ccccc3nc2C(F)(F)F)CC1 | inactive: -10.5% |
